Reference: PubChem BioAssay AID504706 (National Center for Advancing Translational Sciences (NCATS), 2011)
Among all 320,000 compounds or so, about 200 (0.062%) were called active. The shares of active, inactive and inconclusive entries below differ from those in the screen. Calls follow the shape of the dose curve; as a rule, active = well fitted activation curve with a large enough effect; inconclusive = small, poorly fitted or top-dose-only effect; inactive = no such curve, though single readings can be large or run the other way. Potencies of inconclusive entries are left out as doubtful fits.

experiment: qHTS assay for re-activators of p53 using a Luc reporter; settings: H1299 p53-A138V BP100-luciferase reporter, luminescence, 24 h; series mostly up to 92.2 µM; activity change, positive = activation: at the top concentration; also: nearly all actives have a fitted effect of over 45% in size; as to activity change, positive = activation: % of control where 0% means no effect
Procedure, shortened: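 H1299 (p53-null), stable ts p53-A138V + BP100-Luc; 1000 cells/well, Opti-MEM/10% FBS; cpd 4 pt, 1:5; 24 h, 37 deg C, 5% CO2; detection reagent 10 min RT; luminescence.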
Potency is read from the fitted curve at half-maximal effect; tags tell the direction and shape of the fitted curve.

**Q.** Which Potency does the source give for `COc1ccc(C(=O)/C=C/Nc2cc(C)on2)cc1` here?
**A.** inconclusive [activator, partial curve, poor fit]

**Q.** For `CCC(=O)N(c1nnc(SCC(=O)c2ccc[nH]2)s1)C1CC1`, which Potency is on record?
**A.** inconclusive [activator, partial curve, poor fit]

**Q.** For `CC1CCCN(C(=O)c2ccc([N+](=O)[O-])o2)C1` (stereo not given), which Potency is on record?
**A.** inconclusive [activator, partial curve, poor fit]

**Q.** Which Potency does the source give for `Cc1ccsc1CN(C)C(=O)C1CCC(=O)N(CCc2cccc(F)c2)C1` (stereo not given) here?
**A.** inconclusive [activator, partial curve, poor fit]

**Q.** Which Potency does the source give for `COc1ccc(C(=O)NCc2oc(-c3ccccc3)cc2C(=O)O)cc1` here?
**A.** inconclusive [activator, single point]

**Q.** With `C=CC(=O)N(CCC)C(c1ccccc1)c1ccccc1OC` (stereo not given) as the compound, how does the “activity change, positive = activation” value read?
**A.** inactive: -9.44%

**Q.** For `CCc1ccc(-c2csc(-c3c[nH]c4ccccc34)n2)cc1`, which Potency is on record?
**A.** active: 20 µM

**Q.** With `COc1ccc(C(=O)Cn2c(NCCO)nc3ccccc32)cc1OC` as the compound, how does the “activity change, positive = activation” value read?
**A.** inactive: -14.7%

**Q.** For `Cc1ccc(CNc2ccc([N+](=O)[O-])cc2C(N)=O)cc1`, which Potency is on record?
**A.** inconclusive [activator, full curve, poor fit]

**Q.** Which Potency does the source give for `COc1ccnc(CSC(N)=Nc2ccccc2C(F)(F)F)c1` here?
**A.** inconclusive [activator, single point]

**Q.** Which Potency does the source give for `COC(=O)c1c(-c2ccccc2)csc1NC(=O)c1ccco1` here?
**A.** inconclusive [activator, partial curve, poor fit]

**Q.** For `Cc1csc(NC(=O)/C=C/c2ccc3c(c2)OCO3)n1`, which Potency is on record?
**A.** inconclusive [activator, partial curve, poor fit]

**Q.** With `O=[N+]([O-])c1cc(Br)cc(C=Nc2ccc3c(c2)OCO3)c1O` as the compound, how does the “activity change, positive = activation” value read?
**A.** inactive: 1.83%

**Q.** Which Potency does the source give for `COc1ccc(C(=O)NC(=S)N2CCNC(=O)C2CC(=O)OC(C)C)cc1` (stereo not given) here?
**A.** inconclusive [activator, single point]

**Q.** Which Potency does the source give for `Cc1cccc(N=C2NC(=O)/C(=C/c3cccs3)S2)c1` here?
**A.** inconclusive [activator, single point]

**Q.** Which “activity change, positive = activation” value does the source give for `Cc1ccc(Nc2nc(N)nc(CN3CCN(Cc4ccc5c(c4)OCO5)CC3)n2)cc1` here?
**A.** inactive: -17.3%

**Q.** For `Cc1cccc(-n2c(-c3ccccc3)c[nH]c2=S)c1C`, which “activity change, positive = activation” value is on record?
**A.** inactive: 14.2%

**Q.** With `O=C(CN1C(=O)C2C3C=CC(C3)C2C1=O)Nc1ccc(S(=O)(=O)N2CCCCC2)cc1` (stereo not given) as the compound, how does the “activity change, positive = activation” value read?
**A.** inactive: -7.9%

**Q.** For `Cc1cc(NCCCn2ccnc2)n2ncc(-c3ccc(Cl)cc3)c2n1`, which Potency is on record?
**A.** inconclusive [activator, full curve, poor fit]

**Q.** For `COc1ccccc1CNC(=O)Cn1cccc1C(=O)c1ccccc1`, which Potency is on record?
**A.** inconclusive [activator, single point]

**Q.** For `Clc1ccc(-c2cnn3c(-c4ccncc4)ccnc23)cc1`, which Potency is on record?
**A.** inconclusive [activator, partial curve, poor fit]

**Q.** For `C=CCn1c(=O)c2ccccc2n2c(SCc3nc4ccccc4s3)nnc12`, which Potency is on record?
**A.** inconclusive [activator, partial curve, poor fit]

**Q.** Which Potency does the source give for `O=C(NCc1ccccn1)c1coc(=O)c(Br)c1` here?
**A.** inconclusive [activator, partial curve, poor fit]

**Q.** Which Potency does the source give for `O=C(N/N=C/c1ccccn1)c1ccc(Br)cc1` here?
**A.** inconclusive [activator, partial curve, poor fit]

**Q.** Which Potency does the source give for `Nc1ccc(/C=C/C(=O)c2ccco2)cc1` here?
**A.** inconclusive [activator, partial curve, poor fit]

**Q.** For `O=C(O)CCC(=O)Nc1cccc(C(=O)Nc2cccc(Cl)c2)c1`, which “activity change, positive = activation” value is on record?
**A.** inactive: 7.02%

**Q.** For `C/C(=N\NC(=O)COc1ccccc1)c1cccs1`, which Potency is on record?
**A.** inconclusive [activator, partial curve, poor fit]

**Q.** For `CSc1nc(-c2ccc(Cl)cc2)nn1S(=O)(=O)c1ccccc1`, which Potency is on record?
**A.** inconclusive [activator, partial curve, poor fit]

**Q.** With `COc1ccc(/C(N)=N/OC(=O)C2CCCCC2)cc1` as the compound, how does the Potency read?
**A.** inconclusive [activator, partial curve, poor fit]

**Q.** With `Cc1cccc(C(=O)Nc2ccccc2C(=O)OCC(=O)Nc2ccc(C#N)cc2)c1` as the compound, how does the Potency read?
**A.** inconclusive [activator, partial curve, poor fit]

**Q.** Which Potency does the source give for `Cc1cc(C(=O)COc2ncnc3sccc23)c(C)n1C1CC1` here?
**A.** inconclusive [activator, partial curve, poor fit]

**Q.** With `CN(C)Cc1nc2c(c(=O)[nH]1)C1(CCCCC1)Cc1ccccc1-2` as the compound, how does the “activity change, positive = activation” value read?
**A.** inactive: 4.62%

**Q.** For `COc1ccc2c(=O)c(-c3nc(C)cs3)coc2c1`, which “activity change, positive = activation” value is on record?
**A.** inactive: 15.3%

**Q.** For `Cc1onc(-c2c(Cl)cccc2Cl)c1C(=O)N/N=C(\N)COc1ccc(Cl)cc1`, which “activity change, positive = activation” value is on record?
**A.** inactive: 15%

**Q.** With `CCOCCc1nnc(NC(=O)c2cc(OC)c(OC)c(OC)c2)s1` as the compound, how does the “activity change, positive = activation” value read?
**A.** inactive: -0.0083%

**Q.** With `COc1ccc(NC(=O)CSc2ccc3nnc(-c4ccccn4)n3n2)cc1OC` as the compound, how does the “activity change, positive = activation” value read?
**A.** inactive: 4.85%

**Q.** For `COc1ccc(OC)c(C(=O)COC(=O)C2CC3CCCC(C2)C3=O)c1` (stereo not given), which “activity change, positive = activation” value is on record?
**A.** inactive: 6.3%

**Q.** With `O=C(COC(=O)c1ccco1)NCc1ccc(Cl)cc1Cl` as the compound, how does the “activity change, positive = activation” value read?
**A.** inactive: -1.76%

**Q.** Which “activity change, positive = activation” value does the source give for `Cc1ccc2c(c1)nnn2C1CCN(C(=O)C23CC4CC(CC(C4)C2)C3)CC1` here?
**A.** inactive: -9.48%

**Q.** Which Potency does the source give for `O=C(NCC1CCCO1)c1ccc([N+](=O)[O-])o1` (stereo not given) here?
**A.** inconclusive [activator, single point]

**Q.** With `CN(C)c1ccc(NC(=O)CN2C(=O)CC(c3ccccc3)=Nc3ccccc32)cc1` as the compound, how does the Potency read?
**A.** inconclusive [activator, single point]

**Q.** With `Cc1ccc(CN2CCSc3ccc(C(=O)NCCCN4CCN(C)CC4)cc32)cc1` as the compound, how does the Potency read?
**A.** inconclusive [activator, partial curve, poor fit]

**Q.** With `COc1cc(OC)c(NC(=O)N2CCOCC2)cc1Cl` as the compound, how does the Potency read?
**A.** inconclusive [activator, single point]

**Q.** Which Potency does the source give for `CN(C(=O)C1CCOC1)c1nnc(-c2cccnc2)s1` (stereo not given) here?
**A.** inconclusive [activator, full curve, poor fit]

**Q.** Which Potency does the source give for `Cc1cccc(C)c1NC(=O)/C(C#N)=C/c1ccc(-c2ccc(C(=O)O)cc2)o1` here?
**A.** inconclusive [activator, partial curve, poor fit]

**Q.** For `COC(=O)CC(=O)CSc1nc2c(cc1C#N)CCC2`, which Potency is on record?
**A.** inconclusive [activator, partial curve, poor fit]

**Q.** With `COc1cc(/C=C2/C(=N)N3N=C(CC(=O)N4CCOCC4)SC3=NC2=O)ccc1OCc1ccccc1` as the compound, how does the Potency read?
**A.** inconclusive [activator, partial curve, poor fit]

**Q.** Which Potency does the source give for `Cc1cc(NC(=O)CSc2nnc(CNC(=O)c3ccccc3)o2)no1` here?
**A.** inconclusive [activator, single point]

**Q.** For `COc1ccc(Nc2cc(C)c3ccc(O)cc3n2)cc1`, which Potency is on record?
**A.** inconclusive [activator, partial curve, poor fit]

**Q.** With `CCN1CCN(C(=O)c2cc(COc3ccc(C(C)=O)cc3OC)on2)CC1` as the compound, how does the Potency read?
**A.** inconclusive [activator, full curve]

**Q.** With `Cc1ccc(SCC(=O)NCc2ccccc2)cc1` as the compound, how does the Potency read?
**A.** inconclusive [activator, single point]

**Q.** For `C/C(=N\NC(=O)c1ccccc1OCCOc1ccccc1)c1ccccc1F`, which “activity change, positive = activation” value is on record?
**A.** inactive: 3.2%

**Q.** With `O=C(CSc1nc2nc(-c3cccs3)cc(C(F)(F)F)c2c(=O)[nH]1)Nc1ccc(F)c(F)c1` as the compound, how does the “activity change, positive = activation” value read?
**A.** inactive: 4.41%

**Q.** With `CCOc1ccc(C(=O)N2CCN(c3ccccc3)CC2)cc1OCC` as the compound, how does the “activity change, positive = activation” value read?
**A.** inactive: -0.63%

**Q.** Which “activity change, positive = activation” value does the source give for `Oc1ccc(/C=N/N2CCN(C3c4ccccc4-c4ccccc43)CC2)cc1O` here?
**A.** inactive: 1.95%

**Q.** Which Potency does the source give for `Cc1cc(-c2nnco2)c(C)n1-c1ccccc1` here?
**A.** inconclusive [activator, partial curve, poor fit]

**Q.** Which Potency does the source give for `CCc1ccc2nc3n[nH]c(N)c3cc2c1` here?
**A.** inconclusive [activator, full curve, poor fit]

**Q.** For `CCC(=O)Nc1nc(-c2ccccc2)ns1`, which Potency is on record?
**A.** inconclusive [activator, partial curve, poor fit]

**Q.** Which Potency does the source give for `CNc1ccc(/C=C/C(=O)c2ccc3c(c2)OCCO3)cc1[N+](=O)[O-]` here?
**A.** inconclusive [activator, partial curve, poor fit]

**Q.** Which Potency does the source give for `NS(=O)(=O)c1cc(C(=O)Nc2ccc3c(c2)CCC3)ccc1Cl` here?
**A.** inconclusive [activator, partial curve, poor fit]

**Q.** With `O=C(COC(=O)Cc1ccc(F)cc1)NC1CCCCCC1` as the compound, how does the “activity change, positive = activation” value read?
**A.** inactive: -0.853%

**Q.** With `Cc1ccc(NC(=O)c2cc3ccccc3oc2=O)cc1S(=O)(=O)N(C)C` as the compound, how does the “activity change, positive = activation” value read?
**A.** inactive: -4.67%

**Q.** For `CNC(=S)NNC(=O)c1ccc(C(C)(C)C)cc1`, which “activity change, positive = activation” value is on record?
**A.** inactive: 4.82%

**Q.** Which “activity change, positive = activation” value does the source give for `CCOC(=O)[C@H]1[C@H]2COc3ccc(C)cc3[C@@H]2N2C(=O)c3ccccc3NC(=O)[C@@]12C` here?
**A.** inactive: -5.69%

**Q.** Which Potency does the source give for `COCc1cc(=O)n2[nH]c(-c3cccc(Br)c3)cc2n1` here?
**A.** inconclusive [activator, partial curve]

**Q.** With `CC(C)C(=O)Nc1ccc2oc(-c3cc(F)c(F)cc3Cl)nc2c1` as the compound, how does the Potency read?
**A.** inconclusive [activator, partial curve, poor fit]

**Q.** With `O=C(NC(=S)Nc1ccc2c(c1)OCCO2)c1cccc2ccccc12` as the compound, how does the Potency read?
**A.** inconclusive [activator, partial curve, poor fit]

**Q.** For `Cc1ccnc(NC(=O)c2ccc(Cl)c(S(=O)(=O)N3CCCC3)c2)c1`, which “activity change, positive = activation” value is on record?
**A.** inactive: 6.84%

**Q.** For `C/C(CC(=O)Nc1cc(C)ccn1)=N\NC(=O)c1cccc(C)c1O`, which Potency is on record?
**A.** inconclusive [activator, full curve, poor fit]

**Q.** Which Potency does the source give for `C/C(Cn1cnc([N+](=O)[O-])n1)=N\NC(=O)c1cccc(F)c1` here?
**A.** inconclusive [activator, full curve, poor fit]
